Screen size: about 310,000 compounds; about 14,000 (4.5%) showed an effect of 50% or more. The effect is printed as a negative number. The list shows a part of the results.
What follows are compounds tested against human ether-à-go-go-related gene (hERG) potassium channel (human, UniProt Q12809) (assay: primary screen, population patch clamp on CHO cells stably expressing hERG).
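Further: peak tail current of the secondary pulse compared with the same well before compound.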

Sequence of human ether-à-go-go-related gene (hERG) potassium channel (Q12809 whole entry, looked up): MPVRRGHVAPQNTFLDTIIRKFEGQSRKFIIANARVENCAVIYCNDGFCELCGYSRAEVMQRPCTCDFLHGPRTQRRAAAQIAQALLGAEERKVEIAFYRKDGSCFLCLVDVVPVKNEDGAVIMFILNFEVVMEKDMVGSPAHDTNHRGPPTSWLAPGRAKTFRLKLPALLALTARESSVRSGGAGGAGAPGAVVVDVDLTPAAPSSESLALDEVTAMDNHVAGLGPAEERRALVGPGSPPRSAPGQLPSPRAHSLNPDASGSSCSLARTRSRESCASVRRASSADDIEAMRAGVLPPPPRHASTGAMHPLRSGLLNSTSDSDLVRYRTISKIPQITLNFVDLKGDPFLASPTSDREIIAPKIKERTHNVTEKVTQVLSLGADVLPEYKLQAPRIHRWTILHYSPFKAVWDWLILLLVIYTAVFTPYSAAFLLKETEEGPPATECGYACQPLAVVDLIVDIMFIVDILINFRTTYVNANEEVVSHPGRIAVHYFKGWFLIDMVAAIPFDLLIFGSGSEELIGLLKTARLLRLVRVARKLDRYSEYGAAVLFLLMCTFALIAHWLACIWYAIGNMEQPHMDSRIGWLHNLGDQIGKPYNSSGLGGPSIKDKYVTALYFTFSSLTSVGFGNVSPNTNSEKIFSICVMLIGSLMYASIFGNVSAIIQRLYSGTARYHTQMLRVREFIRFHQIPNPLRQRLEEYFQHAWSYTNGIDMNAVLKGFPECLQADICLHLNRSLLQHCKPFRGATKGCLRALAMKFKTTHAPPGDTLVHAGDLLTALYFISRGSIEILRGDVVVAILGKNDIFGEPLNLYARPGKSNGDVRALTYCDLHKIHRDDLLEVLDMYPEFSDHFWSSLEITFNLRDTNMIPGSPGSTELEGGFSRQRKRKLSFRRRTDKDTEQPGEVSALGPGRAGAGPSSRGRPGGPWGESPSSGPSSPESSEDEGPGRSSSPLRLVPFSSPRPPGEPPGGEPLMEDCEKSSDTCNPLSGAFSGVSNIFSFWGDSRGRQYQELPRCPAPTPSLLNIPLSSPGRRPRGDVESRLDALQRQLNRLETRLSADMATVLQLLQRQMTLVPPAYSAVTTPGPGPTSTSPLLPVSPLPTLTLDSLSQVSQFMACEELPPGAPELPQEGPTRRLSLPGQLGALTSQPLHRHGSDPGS

| SMILES | hERG current change (%, negative = inhibition) at 10uM |
| --- | --- |
| Cc1cc2ccccc2n1CCNC(=O)C(C)Oc1ccccc1 (centres unmarked) | 0.186% |
| O=C(Cn1nc(C(=O)O)c2ccccc2c1=O)Nc1cc(Cl)cc(Cl)c1 | 12.1% |
| N#Cc1ccccc1OCC(=O)N1CCN(C(=O)c2ccco2)CC1 | -3.36% |
| Cc1ccccc1NS(=O)(=O)c1ccc(NC(=O)CSCc2ccc(Br)cc2)cc1 | 16.5% |
| CCOc1cc(N2CCOCC2)c(OCC)cc1NC(=O)COC(=O)CCOc1ccc(C(C)(C)C)cc1 | -37.1% |
| CCN(/N=C/c1cccs1)c1cc(=O)n(C)c(=O)[nH]1 | -8.12% |
| Cc1ccc(-n2c(C)cc(C(=O)CN3CCOCC3)c2C)cc1 | -5.65% |
| CN(C)/C=C1\SC(=S)N(N2C(=O)C3C4C=CC(C4)C3C2=O)C1=O (centres unmarked) | -0.75% |
| Cc1nonc1OCCN1CCN(c2ccccc2[N+](=O)[O-])CC1.Cl | -37.2% |
| COc1ccc2c(c1)[nH]c1c(=O)n(Cc3ccncc3)cnc12 | -18.8% |
| O=C(CCn1cnnn1)Nc1ccccc1F | 6.63% |
| OCC[C@H]1C[C@@H](O)[C@H](O)[C@]2(Cc3ccccc3CCO2)O1 | -0.537% |
| CN(c1ccc(OCC(=O)OCC(=O)Nc2ccccc2)cc1)S(=O)(=O)c1cccs1 | -7.15% |
| Cc1ccc(S(=O)(=O)NC2=NCCCCC2)cc1 | -5.86% |
| CN1CCN(c2ccc([N+](=O)[O-])cc2NC(=O)c2ccccc2Cl)CC1 | -71.1% |
| CCOc1ccccc1NC(=O)C(OC(=O)c1ccc(O)cc1)c1ccccc1 (centres unmarked) | -15.1% |
| O=C(COc1ccccc1)Nc1ccc(OC(F)(F)C(F)F)c(NC(=O)COc2ccccc2)c1 | 0.083% |
| Cc1cc([N+](=O)[O-])ccc1NC(=O)CCC(=O)N1CCCCC1 | -23.9% |
| CC(C)(C)n1nc2c(c1NC(=O)c1cc([N+](=O)[O-])ccc1Cl)CS(=O)(=O)C2 | 2.01% |
| C/C=C/COc1nc2c(c(=O)n(C)c(=O)n2C)n1C | 7.25% |
| C/C(=N\NC(=O)c1cccc(Br)c1)c1cccc(NC(=O)c2ccc(C)o2)c1 | -6.46% |
| COc1ccc(-c2[nH]ncc2CN(Cc2nccn2C)C(C)C)c(F)c1 | -39.7% |
| O=C(NCC(=O)N(c1ccc(Cl)cc1)C(C(=O)NC1CCCC1)c1ccncc1)c1ccco1 (centres unmarked) | -5.29% |

| SMILES | hERG current change (%, negative = inhibition) at 10uM |
| --- | --- |
| COc1ccccc1NC(=S)N1CCN(c2ccc(F)cc2)CC1 | 14.6% |
| CCOc1ccc(C(c2c(C)n(C)n(-c3ccccc3)c2=O)c2c(C)n(C)n(-c3ccccc3)c2=O)c(O)c1 | 12.9% |
| O=c1c2ccccc2nc(-c2ccc([N+](=O)[O-])cc2)n1O | 10.4% |
| CCOc1ccc(C(=O)N2CCCCCC2)cc1 | 2.03% |
| O=C(c1ccc(COc2ccc(Cl)cc2)o1)N1CCN(Cc2ccc3c(c2)OCO3)CC1 | -12.7% |
| COc1ccc(CNC(=O)COC(=O)CCOc2ccccc2)cc1 | 7.75% |
| O=C(O)c1ccccc1CSc1nc2ccccc2[nH]1 | 13.6% |
| Cl.OCCN1CCN(CCOc2cccc(Cl)c2)CC1 | -15.6% |
| COc1ccc(C)cc1S(=O)(=O)NC1CCCC1 | 13.3% |
| COc1ccc(C(C)NC(=O)C2CCCC2)cc1 (centres unmarked) | 15.1% |
| O=C(/C=C/c1cccc(Cl)c1)NCCCN1CCOCC1 | 4.19% |
| Cc1cccc(-n2c(-c3csc4ccccc34)n[nH]c2=S)c1 | 5.78% |
| COc1ccc(-c2[nH]c(-c3ccccc3)nc2SCC(=O)Nc2nccs2)cc1 | -18% |
| CCCc1cc(C(=O)NCc2ccccc2)no1 | -18.4% |
| CN(C)S(=O)(=O)c1ccc(C(=O)Nc2cccc(C(=O)N3CCOCC3)c2)cc1 | 0.431% |
| CCOC(=O)c1cc(C)n(S(=O)(=O)c2ccc(C)cc2)c1C | -2.18% |
| CN(C)/C=N/c1nc2nccc(-c3ccc(F)cc3)n2n1 | 13.8% |
| COc1ccc(CNC(=O)COC(=O)c2ccccc2OCC(=O)Nc2ccc(SC(F)F)cc2)cc1 | 6.66% |
| Cc1ccccc1Oc1nc2c(C)cccn2c(=O)c1/C=C(\C#N)C(=O)NC1CCS(=O)(=O)C1 (centres unmarked) | -19.8% |
| CC(=O)N1CCN(c2ccc(NC(=O)c3ccc4ccccc4c3)cc2)CC1 | -7.05% |
| CN(C(=O)c1ccccc1C(=O)c1ccccc1)C1CCS(=O)(=O)C1 (centres unmarked) | 15.5% |
| CCOc1ccc(-c2cc(C(=O)OC)[nH]n2)cc1 | 2.77% |
| O=C(Nc1nc(-c2cc(F)ccc2F)cs1)c1cccc(N2C(=O)CCC2=O)c1 | -2.22% |

| SMILES | hERG current change (%, negative = inhibition) at 10uM |
| --- | --- |
| CCOC(=O)Nc1cc(Br)c2c(c1)OCCO2 | -6.45% |
| Fc1ccc(Nc2ncnc3sccc23)cc1 | 2.35% |
| CC(C)(C)c1ccc(C(=O)NNC(=O)CCC(=O)Nc2ccccc2)cc1 | -5.91% |
| CCN(CC)CCNS(=O)(=O)c1ccc(/C=C/C(=O)O)cc1 | 21.8% |
| Cc1ccc(S(=O)(=O)N2CCN(C(=O)CN3CCCC3)C2)cc1 | -6.28% |
| CCOc1ncnc2c1oc1nc(CC(C)C)c3c(c12)CC(C)(C)OC3 | 3.47% |
| CCC(C)NC(=O)c1ccccc1NC(=O)C(C)N(c1ccccc1)S(C)(=O)=O (centres unmarked) | -5.98% |
| CCOC(=O)C1(Cc2ccc(Cl)cc2)CCN(C(=O)c2sc(C)nc2C)CC1 | -52.9% |
| Cc1cc(N)ccc1N1CCCC1.Cl | -1.82% |
| CCOC(=O)CC1(NC(=O)c2cc(COc3cncc(Cl)c3)on2)CCCCC1 | -18.8% |
| O=C(C(=O)N1CCN(c2cccc(Cl)c2)CC1)c1c[nH]c2ccccc12 | 3.75% |
| CCSc1nsc(NC(=O)Nc2cccc(C(C)=O)c2)n1 | 10.5% |
| O=C(NC(=O)N1CCOCC1)c1ccccc1 | 8.08% |
| COc1ccc(C(OC(=O)c2ccco2)C(=O)NCc2ccco2)cc1 (centres unmarked) | 20.9% |
| COc1cccc(C2=NN(C(=O)c3ccc(C)o3)C(O)(C(F)(F)F)C2)c1 (centres unmarked) | 26.3% |
| O=C(Cc1ccccc1)Nc1ncccn1 | 4.2% |
| COc1cc(OC)cc(C(=O)Oc2c(CN3CCOCC3)cc(Cl)c3cccnc23)c1 | -15.5% |
| Cc1nc2sccn2c(=O)c1S(=O)(=O)NCC(C)c1ccccc1 (centres unmarked) | -3.59% |
| CC(NC(=O)c1ccccc1[N+](=O)[O-])C1CC2CCC1C2 (centres unmarked) | 5.96% |
| CCOc1cc(-c2n[nH]c(=S)n2Cc2ccccc2)ccc1OC(F)F | 10.9% |
| CN(Cc1ccc(F)cc1)C(=O)CCc1nnc(-c2ccccc2)o1 | 3.07% |
| CCCc1nnc(NC(=O)CCC(=O)NCc2ccc(Cl)cc2Cl)s1 | 21.6% |
| COc1cc(C(=O)Nc2ccc(C)cc2C(NCC(=O)NN)c2ccccc2)cc(OC)c1OC (centres unmarked) | 15.1% |

| SMILES | hERG current change (%, negative = inhibition) at 10uM |
| --- | --- |
| Cc1cc(-c2ccc(Cl)cc2)n2nc(C)cc2n1 | 4.45% |
| Cc1nn(-c2ccc(C(=O)O)cc2)c(=O)c2ccccc12 | 9.56% |
| COc1cc(CN(C2CCCCC2C)S(=O)(=O)c2ccc(S(=O)(=O)NC3CC3)cc2)cc(OC)c1OC (centres unmarked) | -8.6% |
| Cc1cc(=O)[nH]c(N/N=C/c2ccc(-c3ccc([N+](=O)[O-])cc3)o2)n1 | -6.34% |
| O=c1[nH]c(SCc2ccccc2)nc2ccsc12 | 5.3% |
| CCSc1nnc(NC(=O)c2cc(OC)c(OC)c(OC)c2)s1 | 3.21% |
| CCCc1cc(C(=O)N2CCCC(N3CCN(c4ccccc4C)CC3)C2)n(C)n1 (centres unmarked) | -35.8% |
| O=C(NNS(=O)(=O)c1ccccc1)c1ccccc1-n1cccc1 | 6.21% |
| Cc1cc(C)cc(NC(=S)NCC2CCCO2)c1 (centres unmarked) | 10.4% |
| CCOC(=O)c1nn(-c2ccc(C)c(C)c2)c(=O)c(C#N)c1C | 9.47% |
| CCO[C@H]1OC(C(=O)N2CCOCC2)=C[C@@H](c2ccc(C(F)(F)F)cc2)[C@@H]1CCCO | -26.3% |
| CN1CCN(c2cc(N3CCCC3)c([N+](=O)[O-])cc2F)CC1 | -9.86% |
| O=C(Cn1cnc2ccccc2c1=O)c1ccc2ccccc2c1 | -7.53% |
| CCN1CCN(C(=O)Nc2cccc3ccccc23)CC1 | -1.52% |
| COc1ccc(OC)c(/C=C2\SC(=S)N(N3CCOCC3)C2=O)c1 | 14.5% |
| CN(CC(=O)Nc1ncn[nH]1)S(=O)(=O)c1cc(Cl)ccc1Cl | -31.5% |
| O=C(CP(=O)(CO)CO)c1ccc(Cl)cc1 | -3.45% |
| CCN(CC)CC#CCC(O)(c1ccccc1)c1ccc(Br)cc1.Cl (centres unmarked) | -50.1% |
| CC(=O)n1cc(N(C(=O)CCl)c2ccc(C)cc2)c2ccccc21 | -5.35% |
| O=C1c2ccccc2C(O)N1Cc1ccc2c(c1)OCO2 (centres unmarked) | 9.2% |

Source: paper PMC4336329 (PLoS ONE, 2015)
